Measurements as given in PubChem BioAssay AID1508642 (National Center for Advancing Translational Sciences (NCATS), 2021).
Screen size: about 43,000 compounds; about 200 (0.47%) were called active. About 12% were inconclusive and are not listed. The call rests on the fitted dose curve; in most records, active means well fitted cell-killing curve with a large enough effect; inconclusive means small, poorly fitted or top-dose-only effect, or effect the other way; inactive means flat fitted curve, though single readings scatter. Some of the results follow.

assay: Cell viability qHTS assay in S16 Pmp22-F2sN cells; details: S16 Pmp22-F2sN Schwann cells (luciferase reporters placed in the Pmp22 gene) viability, CellTiter-Glo, 24 h; series mostly up to 57.5 µM; activity change, negative = cytotoxicity: at the top concentration; further: nearly all actives have a fitted effect of over 65% in size
Summary of the method: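 Seed 500-1,000 S16 Pmp22-F2sN cells per well in phenol-red-free DMEM with 10% heat-inactivated FBS; pin-add 23 nL compound; incubate 24 h at 37C; add CellTiter-Glo, wait 15 min protected from light; read luminescence.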
On the % scale 0 is the no-effect control and ±100 the full control effect.

| Compound | activity change, negative = cytotoxicity |
| --- | --- |
| O=S(=O)(c1ccc(Cl)cc1)c1nc(-c2ccccc2F)oc1NCc1ccccc1 | inactive: -6.3% |
| O=C(CSCn1nnc2c(=O)[nH]c(Cc3ccc(F)cc3)nc21)Nc1ccccc1 | inactive: -1.67% |
| Cc1c(C(=O)NCc2ccc(Cl)cc2)sc2nc3n(c(=O)c12)CCC3 | inactive: 0.729% |
| COc1ccc(-c2nc3n(n2)C(c2ccccc2)C(C(=O)Nc2cccnc2)=C(C)N3)cc1 (stereo not given) | inactive: 0.479% |
| COCCNC(=O)CN1C(=O)CCn2nc(-c3cn(C)c4ccccc34)cc21 | inactive: 5.11% |
| CCOC(=O)N1CCN(CCC(=O)Nc2cccc(F)c2)CC1 | inactive: 8.08% |
| COc1ccc2c(Sc3ccc(C)cc3)c(C(=O)NC(C)c3ccccc3)[nH]c2c1 (stereo not given) | inactive: 0.235% |
| COc1cc([C@@H]2Nc3c(F)cccc3[C@@H]3C=CC[C@@H]32)cc(Br)c1OC | inactive: -0.514% |
| Cc1c(C(=O)O)oc2c1-c1nn(Cc3ccccc3Cl)cc1CC2 | inactive: -8.5% |
| Cc1c(NC(=O)Cc2ccccc2)cccc1-c1nc2cccnc2s1 | inactive: -1.07% |
| CCOC(=O)c1c(C)[nH]c(C)c1S(=O)(=O)N1CCC(C(=O)NCc2ccc(OC)cc2)CC1 | inactive: 3.04% |
| CCOc1ccc(NC(=O)c2cc3nc(-c4ccc(OC)cc4)cc(C(F)(F)F)n3n2)cc1 | inactive: -1.5% |
| Cn1nc(-c2ccccc2F)c2cc(C(=O)N3CCN(c4ccccc4F)CC3)sc21 | inactive: -7.68% |
| COC(=O)c1ccc2c(=O)n(CCCCCC(=O)N3CCN(c4cccc(C)c4C)CC3)c(=O)[nH]c2c1 | inactive: -8.89% |
| COCCCNc1nc2c(-c3cccc(Br)c3)nnn2c2ccccc12 | inactive: 20.3% |
| CCCCOc1ccc(C(=O)Nc2ccc3c(c2)N(C(C)=O)CCC3)cc1 | inactive: 7.59% |
| Cc1ccc(S(=O)(=O)N2CCCc3cc(NC(=O)c4cccc(Cl)c4)ccc32)cc1 | inactive: -23.8% |
| Cc1cccc(-c2cc(-c3ccccc3)nc(SCC(=O)Nc3ccccc3)c2C#N)c1 | inactive: 4.57% |
| Cc1ccc(S(=O)(=O)N(CC(O)Cn2c3ccccc3c3ccccc32)c2cccc(C(=O)NCCO)c2)cc1 (stereo not given) | inactive: -18.4% |
| CCC(Cn1nnc2ccccc2c1=O)NC(=O)Nc1ccccc1Cl (stereo not given) | inactive: -9.39% |
| CCS(=O)(=O)N1CCc2cc(C(=O)NCc3ccc(C)cc3)ccc21 | inactive: -10.1% |
| O=C(CSc1nc2c([nH]c3ccccc32)c(=O)n1-c1ccc(F)cc1)Nc1ccc2c(c1)OCCO2 | inactive: 3.64% |
| COc1ccc2c(CNCc3cccs3)c(C(=O)O)n(Cc3ccccc3C)c2c1 | inactive: 2.36% |
| COc1cc(OC)c(N(C)C(=O)c2cc3c(s2)-c2ccccc2OC3)cc1Cl | inactive: 0.624% |

| Compound | activity change, negative = cytotoxicity |
| --- | --- |
| O=C(OCC1CCCO1)c1ccc2c(c1)N(Cc1ccc(F)cc1)C(=O)c1ccccc1S2(=O)=O (stereo not given) | inactive: 5.54% |
| CCC(Sc1nc2ncccc2[nH]1)C(=O)Nc1ccccc1F (stereo not given) | inactive: -25.9% |
| Cc1ccc(Cl)cc1NC(=O)N1CCC(CN2CCc3ccccc3C2)CC1 | inactive: -15.5% |
| CCC(=O)NCc1nc2ccccc2n1Cc1ccccc1 | inactive: 10.6% |
| CCNC(=O)CC1C(=O)N(c2ccc(F)cc2)C(=O)N1CCOC (stereo not given) | inactive: 6.66% |
| COc1ccccc1CNC(=O)c1ccc(Cn2c(SCc3ccccc3)nc3cccnc32)cc1 | inactive: -17.6% |
| CCOc1ccc(C(=O)N2CCC(c3nnc(-c4ccccc4OC)o3)CC2)cc1 | inactive: 8.96% |
| N#Cc1ccccc1CN1C(=O)c2ccccc2Sc2ccc(C(=O)OCc3ccco3)cc21 | inactive: 5.46% |
| O=C(CCc1ccccc1)NCc1nc2cccnc2n1Cc1ccc(F)cc1 | inactive: 16.7% |
| CCOc1ccc(NC(=O)CCc2c(C)nc3nc(C)nn3c2C)cc1 | inactive: 13.8% |
| CCOC(=O)c1c(C)oc2nc(C)nc(NCCCN3CCN(c4ccccc4)CC3)c12 | inactive: 0.336% |
| COC(=O)C(CCSC)NC(=O)C1CCN(c2ncnc3c2nc2n3CCCCC2)CC1 (stereo not given) | inactive: -2.56% |
| COc1ccc(NC(=O)CN2CCN(Cc3ccccc3)S2(=O)=O)c(OC)c1 | inactive: 5.35% |
| CCOc1ccc(OCC)c(NC(=O)c2cc(S(=O)(=O)N3CCCC3)cn2C)c1 | inactive: -1.66% |
| COc1ccccc1N1CCN(c2ccc(NC(=O)c3ccc(C)cc3)cc2C(=O)O)CC1 | inactive: 3.1% |
| Cc1c(CNC2CCCCC2)c(C(=O)O)c(C)n1Cc1c(F)cccc1Cl | inactive: 12.7% |
| Cc1ccc(NC(=O)CCCn2c(=O)c3cccn3c3ccccc32)c(Cl)c1 | inactive: -20.9% |
| COc1cc(OC)c(NC(=O)c2csc3c2CCC(C)C3)cc1Cl (stereo not given) | inactive: -2.71% |
| CCOc1ccccc1NC(=O)Cn1c(=O)n(CCC(=O)NCc2ccc3c(c2)OCO3)c(=O)c2ccccc21 | inactive: -0.897% |
| COc1ccccc1CNC(=O)c1cc2cc3ccc(Cl)cc3nc2o1 | inactive: 0.69% |
| COc1ccc(CCNC(=O)CCc2c(C)nc3c(c(C)nn3-c3ccc(C)c(C)c3)c2C)cc1OC | inactive: 10.1% |
| COc1ccc(CNC(=O)c2cnc3sc(N4CCOCC4)nn3c2=O)cc1 | inactive: 1.51% |
| O=C(CSC1=Nc2ccccc2C2=NC(CCC(=O)NC3CCCCC3)C(=O)N12)Nc1cccc(C(F)(F)F)c1 (stereo not given) | inactive: -29.1% |
| CCOc1ccc(NC(=O)C(CC)n2c(=O)c(-c3ccccc3NC(C)=O)nc3ccccc32)cc1 (stereo not given) | inactive: -8.27% |

| Compound | activity change, negative = cytotoxicity |
| --- | --- |
| Cc1ccc(CNC(=O)Cn2cc(S(=O)(=O)Cc3ccccc3Cl)c3ccccc32)cc1 | inactive: -1.18% |
| Nc1nnc(SCC(=O)Nc2ccc(Cl)cc2)s1 | inactive: -13.9% |
| CCOc1ccc(NC(=O)C2CCN(C(=O)N3CC(C)Oc4ccc(Cl)cc43)CC2)cc1 (stereo not given) | inactive: -11.7% |
| CCCn1c(CN2CCN(c3ccc(OC)cc3)CC2)nc2c1c(=O)[nH]c(=O)n2C | inactive: 2.1% |
| COc1cc(-c2cc3n(C)c(C)c(CCC(=O)O)c(=O)n3n2)cc(OC)c1OC | inactive: 10.4% |
| Cc1cc2oc(C(=O)Nc3ccc(S(=O)(=O)N(C)Cc4ccccc4)cc3)cc(=O)c2cc1C | inactive: 0.279% |
| CC(C)CC(=O)Nc1nnc(S(=O)(=O)N(CC(C)C)c2ccccc2)s1 | inactive: -2.88% |
| Cc1ccc(CNC(=O)CCC(=O)N2CC3CCCN3c3ccccc32)cc1 (stereo not given) | inactive: -1.53% |
| Cc1cc(C)cc(-n2c(C)nc3cc(C(=O)O)ccc32)c1 | inactive: 9.42% |
| CCOc1ccc(C2=CC(c3cccc(Br)c3)n3c(nc4ccccc43)N2)cc1Cl (stereo not given) | inactive: -19.8% |
| COc1ccc(-c2noc(-c3ccc(NCc4cccnc4)c([N+](=O)[O-])c3)n2)cc1OC | inactive: -10.6% |
| Cc1cc(C)c(S(=O)(=O)NCCc2cc3ccc(C)c(C)c3[nH]c2=O)c(C)c1 | inactive: -1.72% |
| O=c1c2sc3ccccc3c2n(Cc2cccc(Cl)c2)c(=O)n1Cc1ccco1 | inactive: 18.5% |
| Cc1cccc(OCc2nc(CC(=O)Nc3ccc(C)c(C)c3)cs2)c1 | inactive: 4.55% |
| COc1ccc(OCc2ccc(-c3nc(C#N)c(N4CCCCC4)o3)o2)cc1 | inactive: -18.9% |
| CCc1ccccc1NC(=O)Cn1c(=O)ccc2cc(S(=O)(=O)N3CCCC3)ccc21 | inactive: 5.65% |
| CCCSc1ncc(Cl)c(C(=O)N(Cc2ccc(Cl)cc2)Cc2ccco2)n1 | inactive: -16.6% |
| CCOC(=O)N1CCc2c(sc3c2c(=O)n(-c2ccc(CC)cc2)c(=O)n3C)C1 | inactive: 5.04% |
| CCC1CCCCN1S(=O)(=O)c1cc2c3c(c1)CC(=O)N3CCC2 (stereo not given) | inactive: -19.9% |
| CCOC(=O)c1c(C)[nH]c(C)c1S(=O)(=O)N1CCC(C(=O)NCc2cccc(OC)c2)CC1 | inactive: 28.4% |
| COc1ccc(S(=O)(=O)N2Cc3ccccc3CC2C(=O)Nc2ccc(C)cc2C)cc1OC (stereo not given) | inactive: -16.4% |
| CCC(C(=O)O)n1ccc2cc(S(=O)(=O)N3CCCCC3)ccc21 (stereo not given) | inactive: -9.12% |
| COc1ccc(C(=O)c2c(N)c(C(=O)Nc3cccc(OC)c3)c3ccccn23)cc1 | inactive: -27.3% |
| Cc1c(C(=O)N(C)C)sc2c1c(=O)n(-c1ccc(Cl)cc1)c(=O)n2CC(=O)C(C)(C)C | inactive: 3.57% |

| Compound | activity change, negative = cytotoxicity |
| --- | --- |
| Cc1ccc(NC(=O)Cn2nc(N3CCN(c4ccccc4)CC3)ccc2=O)cc1F | inactive: 0.254% |
| COc1ccc(-n2c(=O)c3sc4ccccc4c3n(Cc3ccccc3C)c2=O)cc1OC | inactive: -10.8% |
| CCC1=C(c2ccc(C)cc2)S(=O)(=O)N=C1N1CCC(C(=O)NCc2ccc(N(C)C)cc2)CC1 | inactive: -13.3% |
| CCN1C(=O)c2ccccc2Sc2ccc(NC(=O)Nc3cccc([N+](=O)[O-])c3C)cc21 | inactive: -40.1% |
| Cc1ccc(N2CC(NC(=O)c3cccc(Cl)c3)CC2=O)cc1C (stereo not given) | inactive: 9.73% |
| CCOC(=O)c1c(C)oc2ncnc(Nc3cc(C)cc(C)c3)c12 | inactive: 6.66% |
| O=C(NCCc1csc2nc(-c3ccccc3F)nn12)C(=O)Nc1cc(F)ccc1F | inactive: -2.31% |
| CCc1ccccc1Nc1sc(C(=O)c2cccc(OC)c2)c(N)c1S(=O)(=O)c1ccccc1 | inactive: 6.18% |
| CC1CCCN(C(=O)Cn2ncc3c([nH]c4ccccc43)c2=O)C1 (stereo not given) | inactive: 26.7% |
| CCCCOc1ccc(C(=O)NCc2nnnn2-c2ccc(C)c(C)c2)cc1 | inactive: 0.92% |
| COC(=O)c1c(NC(=O)/C(C#N)=C/c2ccccc2)sc2c1C(C(=O)OC)CC2 (stereo not given) | inactive: 1.11% |
| Cc1cccc(N2CCN(C(=O)c3cnc(N4CCCC4)nc3C)CC2)c1C | inactive: -0.0488% |
| COc1ccc(C2c3c(n(C)c4ccccc34)C(=O)N2CC(=O)Nc2cccc(Cl)c2C)cc1 (stereo not given) | inactive: -6.1% |
| COc1cc(NC(=O)c2nnn(CC(=O)Nc3cc(C)ccc3C)c2N)cc(OC)c1 | inactive: -3.43% |
| COc1cc(NC(=O)c2cc(-c3cccc(OC)c3)n[nH]2)cc(OC)c1 | inactive: -2.72% |
| CCOc1cc(C(=O)Nc2ccc3c(c2)n(C)c(=O)c(=O)n3C)cc(OCC)c1OCC | inactive: 6.86% |
| CCOc1ccc(-n2c(SCC(=O)Nc3ccc(CC)cc3)nc3c(oc4ccccc43)c2=O)cc1 | inactive: 4.64% |
| CCOC(=O)CCc1c(C)nc2cc(-c3cc(OC)cc(OC)c3)[nH]n2c1=O | inactive: 7.19% |
| O=C(Nc1ccc(OC(F)(F)F)cc1)c1noc2c1CCCC2 | inactive: 4.62% |
| CC1CCc2c(sc(NC(=O)CCCOc3ccccc3)c2C(N)=O)C1 (stereo not given) | inactive: 6.32% |
| Cc1nc2ccc(S(=O)(=O)N(CC(=O)Nc3ccc(F)cc3)Cc3ccccc3)cc2s1 | inactive: -8.49% |
| COC(=O)c1sc2cccc(F)c2c1S(=O)(=O)N1CCN(c2cccc(C)c2)C(C)C1 (stereo not given) | inactive: 1.33% |
| COc1ccc(-c2cn3c(C)c(C(=O)Nc4cc(C)cc(C)c4)sc3n2)cc1 | inactive: 0.627% |
